From the supplement of paper PMC8728848
Some of the results follow.

What was measured:
Experiment in all cases: glycan array binding signal (z-score within array); higher = stronger binding
Conditions in all cases: glycan notation: IUPAC condensed, linker removed
[1] = target: Gal(b1-4)GlcNAc(b1-3)Gal(b1-4)GlcNAc(b1-6)[Gal(b1-3)]GalNAc
Summary of the method: (§1)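 The Consortium for Functional Glycomics database supplied 3228 glycan arrays, of which those lacking an available protein sequence were dropped. The binding signal, a within-array Z-score, was averaged across arrays of the same protein sequence and across linkers. Negative scores can be read as non-binding.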

[2] = target: Gal(b1-4)GlcNAc(b1-3)Gal(b1-4)[Fuc(a1-3)]GlcNAc(b1-3)Gal(b1-4)[Fuc(a1-3)]GlcNAc
Summary of the method: as §1

[3] = target: Gal(b1-4)GlcNAc(b1-3)GalNAc
Summary of the method: as §1

[4] = target: Gal(b1-4)GlcNAc(b1-3)[Fuc(a1-3)GlcNAc(b1-6)]Gal(b1-4)Glc
Summary of the method: as §1

[5] = target: Gal(b1-4)GlcNAc(b1-3)[Gal(b1-4)GlcNAc(b1-6)]Gal(b1-4)GlcNAc
Summary of the method: as §1

[6] = target: Gal(b1-4)GlcNAc(b1-3)[GlcNAc(b1-6)]Gal(b1-4)GlcNAc
Summary of the method: as §1

[7] = target: Gal(b1-4)GlcNAc(b1-6)Gal(b1-4)GlcNAc
Summary of the method: as §1

[8] = target: Gal(b1-4)GlcNAc(b1-6)GalNAc
Summary of the method: as §1

[9] = target: Gal(b1-4)GlcNAc(b1-6)[Gal(b1-3)]GalNAc
Summary of the method: as §1

[10] = target: Gal(b1-4)GlcNAc(b1-6)[Gal(b1-4)GlcNAc(b1-3)]GalNAc
Summary of the method: as §1

[11] = target: Gal(b1-4)GlcNAc6P
Summary of the method: as §1

[12] = target: Gal(b1-6)Gal
Summary of the method: as §1

[13] = target: Gal3S(b1-3)GalNAc
Summary of the method: as §1

[14] = target: Gal3S(b1-3)GlcNAc
Summary of the method: as §1

[15] = target: Gal3S(b1-3)[Fuc(a1-4)]GlcNAc
Summary of the method: as §1

[16] = target: Gal3S(b1-4)Glc
Summary of the method: as §1

[17] = target: Gal3S(b1-4)Glc6S
Summary of the method: as §1

[18] = target: Gal3S(b1-4)GlcNAc
Summary of the method: as §1

[19] = target: Gal3S(b1-4)[Fuc(a1-3)]Glc6S
Summary of the method: as §1

[20] = target: Gal3S(b1-4)[Fuc(a1-3)]GlcNAc
Summary of the method: as §1

[21] = target: Gal3S(b1-4)[Fuc(a1-3)]GlcNAc6S
Summary of the method: as §1

[22] = target: Gal3S4S(b1-4)GlcNAc
Summary of the method: as §1

[23] = target: Gal3S6S(b1-4)GlcNAc
Summary of the method: as §1

[24] = target: Gal3S6S(b1-4)GlcNAc6S
Summary of the method: as §1

[25] = target: Gal4S(b1-4)GlcNAc
Summary of the method: as §1

[26] = target: Gal4S6S(b1-4)GlcNAc
Summary of the method: as §1

[27] = target: Gal6P(b1-4)GlcNAc
Summary of the method: as §1

[28] = target: Gal6S(b1-3)GlcNAc
Summary of the method: as §1

[29] = target: Gal6S(b1-3)GlcNAc6S
Summary of the method: as §1

[30] = target: Gal6S(b1-4)Glc
Summary of the method: as §1

[31] = target: Gal6S(b1-4)Glc6S
Summary of the method: as §1

[32] = target: Gal6S(b1-4)GlcNAc
Summary of the method: as §1

[33] = target: Gal6S(b1-4)GlcNAc6S
Summary of the method: as §1

[34] = target: GalNAc(a1-3)Gal
Summary of the method: as §1

[35] = target: GalNAc(a1-3)GalNAc
Summary of the method: as §1

[36] = target: GalNAc(a1-3)GalNAc(b1-3)Gal(a1-4)Gal(b1-4)Glc
Summary of the method: as §1

[37] = target: GalNAc(a1-3)GalNAc(b1-3)Gal(a1-4)Gal(b1-4)GlcNAc
Summary of the method: as §1

[38] = target: GalNAc(b1-3)Gal
Summary of the method: as §1

[39] = target: GalNAc(b1-3)Gal(a1-4)Gal(b1-4)GlcNAc
Summary of the method: as §1

[40] = target: GalNAc(b1-3)Gal(a1-4)Gal(b1-4)GlcNAc(b1-3)Gal(b1-4)Glc
Summary of the method: as §1

[41] = target: GalNAc(b1-3)Gal(a1-6)Gal(b1-4)Glc
Summary of the method: as §1

[42] = target: GalNAc(b1-3)GalNAc
Summary of the method: as §1

[43] = target: GalNAc(b1-3)GlcNAc
Summary of the method: as §1

[44] = target: GalNAc(b1-4)Gal(b1-4)Glc
Summary of the method: as §1

[45] = target: GalNAc(b1-4)GlcNAc
Summary of the method: as §1

[46] = target: GalNAc(b1-4)GlcNAc(b1-2)Man
Summary of the method: as §1

[47] = target: GalNAc(b1-4)GlcNAc(b1-2)Man(a1-3)[GalNAc(b1-4)GlcNAc(b1-2)Man(a1-6)]Man(b1-4)GlcNAc(b1-4)GlcNAc
Summary of the method: as §1

[48] = target: GalNAc(b1-4)GlcNAc(b1-3)GalNAc(b1-4)GlcNAc
Summary of the method: as §1

[49] = target: GalNAc(b1-4)GlcNAc6S
Summary of the method: as §1

[50] = target: GalNAc(b1-6)GalNAc
Summary of the method: as §1

[51] = target: GalNAc3S(b1-4)GlcNAc
Summary of the method: as §1

[52] = target: GalNAc3S(b1-4)GlcNAc3S
Summary of the method: as §1

[53] = target: GalNAc3S(b1-4)[Fuc(a1-3)]GlcNAc
Summary of the method: as §1

[54] = target: GalNAc4S6S(b1-4)GlcNAc
Summary of the method: as §1

[55] = target: GalNAc6S(b1-4)GlcNAc
Summary of the method: as §1

[56] = target: Glc(a1-4)Glc
Summary of the method: as §1

[57] = target: Glc(a1-4)Glc(a1-4)Glc(a1-4)Glc
Summary of the method: as §1

[58] = target: Glc(a1-6)Glc(a1-6)Glc
Summary of the method: as §1

[59] = target: Glc(a1-6)Glc(a1-6)Glc(a1-6)Glc
Summary of the method: as §1

[60] = target: Glc(b1-4)Glc
Summary of the method: as §1

[61] = target: Glc(b1-6)Glc
Summary of the method: as §1

[62] = target: GlcA(b1-3)Gal
Summary of the method: as §1

[63] = target: GlcA(b1-3)GlcNAc
Summary of the method: as §1

[64] = target: GlcA(b1-6)Gal
Summary of the method: as §1

[65] = target: GlcA3S(b1-3)Gal(b1-4)GlcNAc(b1-2)Man
Summary of the method: as §1

[66] = target: GlcA3S(b1-3)Gal(b1-4)GlcNAc(b1-3)Gal(b1-4)Glc
Summary of the method: as §1

[67] = target: GlcNAc(a1-3)Gal(b1-4)GlcNAc
Summary of the method: as §1

[68] = target: GlcNAc(a1-4)Gal(b1-3)GlcNAc
Summary of the method: as §1

[69] = target: GlcNAc(a1-4)Gal(b1-4)GalNAc
Summary of the method: as §1

[70] = target: GlcNAc(a1-4)Gal(b1-4)GlcNAc
Summary of the method: as §1

[71] = target: GlcNAc(a1-4)Gal(b1-4)GlcNAc(b1-3)Gal(b1-4)Glc
Summary of the method: as §1

[72] = target: GlcNAc(a1-4)Gal(b1-4)GlcNAc(b1-3)Gal(b1-4)GlcNAc
Summary of the method: as §1

[73] = target: GlcNAc(a1-4)Gal(b1-4)GlcNAc(b1-3)Gal(b1-4)GlcNAc(b1-3)Gal(b1-4)GlcNAc
Summary of the method: as §1

[74] = target: GlcNAc(a1-4)Gal(b1-4)GlcNAc(b1-3)Gal(b1-4)[Fuc(a1-3)]GlcNAc(b1-3)Gal(b1-4)[Fuc(a1-3)]GlcNAc
Summary of the method: as §1

[75] = target: GlcNAc(a1-6)Gal(b1-4)GlcNAc
Summary of the method: as §1

B1: ClecSol-Fc (Cryptosporidium parvum) (protein)
chain: CPEGWISNGEKTRCFKLVTFDRPRTFSHGFKACNDLGGTEVETRRRNGSKETNEYPVTLASVYKLSDEEAIRRTLVEQGDIHKTANGCFVGLRKYAFFRYPPGWYWIDSGSPVSVRDSEINWTSSYNASWLLRFKFPFEKCGFFDIGGLGRRPCWLIDSELSCAVCGTVAYDSGGLNPNKYSELIKQTDEIISKEPKLDLPGYNNLNCTDAWENNLSVGLCQNVSNILDSAWSSYQSSLNFPSINFNWKEDSTNEGGDQVYHNSYLDLPRYKQKKTFYWDQDPGTIPALSDEMKLIGLSAQPTYHPLDRSSSGSFESDSTESGRANEERNDTLEEMIYKQSSDSIEDILVPVTKPIFSDYSSIGRNSGVEEVYSSNVSTISSKGVVFPNTTTSSDNDFTKNNPANSSKHTSTSTTTNTTTTTTRTTTTTTTTTTTTTTTTTTTTETTTTKKSTTATKNTTTT
glycan array binding signal (z-score) [1]: -0.168
glycan array binding signal (z-score) [2]: -0.22
glycan array binding signal (z-score) [3]: 0.011
glycan array binding signal (z-score) [4]: -0.171
glycan array binding signal (z-score) [5]: -0.197
glycan array binding signal (z-score) [6]: -0.01
glycan array binding signal (z-score) [7]: -0.095
glycan array binding signal (z-score) [8]: -0.05
glycan array binding signal (z-score) [9]: 0.316
glycan array binding signal (z-score) [10]: -0.187
glycan array binding signal (z-score) [11]: 0.194
glycan array binding signal (z-score) [12]: -0.075
glycan array binding signal (z-score) [13]: -0.101
glycan array binding signal (z-score) [14]: -0.143
glycan array binding signal (z-score) [15]: 0.035
glycan array binding signal (z-score) [16]: -0.127
glycan array binding signal (z-score) [17]: -0.039
glycan array binding signal (z-score) [18]: -0.151
glycan array binding signal (z-score) [19]: 0.088
glycan array binding signal (z-score) [20]: 0.021
glycan array binding signal (z-score) [21]: -0.091
glycan array binding signal (z-score) [22]: -0.28
glycan array binding signal (z-score) [23]: 0.024
glycan array binding signal (z-score) [24]: -0.164
glycan array binding signal (z-score) [25]: -0.03
glycan array binding signal (z-score) [26]: -0.054
glycan array binding signal (z-score) [27]: -0.086
glycan array binding signal (z-score) [28]: 0.001
glycan array binding signal (z-score) [29]: -0.065
glycan array binding signal (z-score) [30]: -0.16
glycan array binding signal (z-score) [31]: -0.036
glycan array binding signal (z-score) [32]: -0.208
glycan array binding signal (z-score) [33]: -0.197
glycan array binding signal (z-score) [34]: -0.273
glycan array binding signal (z-score) [35]: -0.134
glycan array binding signal (z-score) [36]: -0.27
glycan array binding signal (z-score) [37]: -0.069
glycan array binding signal (z-score) [38]: -0.076
glycan array binding signal (z-score) [39]: 0.314
glycan array binding signal (z-score) [40]: -0.19
glycan array binding signal (z-score) [41]: -0.242
glycan array binding signal (z-score) [42]: -0.202
glycan array binding signal (z-score) [43]: -0.236
glycan array binding signal (z-score) [44]: -0.098
glycan array binding signal (z-score) [45]: -0.174
glycan array binding signal (z-score) [46]: -0.171
glycan array binding signal (z-score) [47]: -0.238
glycan array binding signal (z-score) [48]: -0.133
glycan array binding signal (z-score) [49]: -0.226
glycan array binding signal (z-score) [50]: -0.238
glycan array binding signal (z-score) [51]: -0.13
glycan array binding signal (z-score) [52]: 0.029
glycan array binding signal (z-score) [53]: 0.219
glycan array binding signal (z-score) [54]: -0.01
glycan array binding signal (z-score) [55]: -0.236
glycan array binding signal (z-score) [56]: 0.234
glycan array binding signal (z-score) [57]: -0.148
glycan array binding signal (z-score) [58]: -0.142
glycan array binding signal (z-score) [59]: -0.083
glycan array binding signal (z-score) [60]: -0.265
glycan array binding signal (z-score) [61]: -0.126
glycan array binding signal (z-score) [62]: -0.082
glycan array binding signal (z-score) [63]: -0.094
glycan array binding signal (z-score) [64]: -0.059
glycan array binding signal (z-score) [65]: 0.302
glycan array binding signal (z-score) [66]: 0.237
glycan array binding signal (z-score) [67]: -0.058
glycan array binding signal (z-score) [68]: 0.049
glycan array binding signal (z-score) [69]: 18.7
glycan array binding signal (z-score) [70]: 0.338
glycan array binding signal (z-score) [71]: 0.038
glycan array binding signal (z-score) [72]: 2.11
glycan array binding signal (z-score) [73]: 1.61
glycan array binding signal (z-score) [74]: 0.617
glycan array binding signal (z-score) [75]: 0.052
